The list shows a part of the results. The full chains were built here from the parent and the listed change. Values near 0.05 are background.
B1: TEV protease; numbered along this chain (parent)
chain: MGESLFKGPRDYNPISSSICHLTNESDGHTTSLYGIGFGPFIITNKHLFRRNNGTLVVQSLHGVFKVKDTTTLQQHLVDGRDMIIIRMPKDFPPFPQKLKFREPQREERICLVTTNFQTKSMSSMVSDTSCTFPSGDGIFWKHWIQTKDGQCGSPLVSTRDGFIVGIHSASNFTNTNNYFTSVPKNFMELLTNQEAQQWVSGWRLNADSVLWGGHKVFMVKPEEPFQPVKEATQL

Variants of: B1
Experiment: raw area under fraction-flipped curve 0-4 h after induction (AUC4h, not background-subtracted), DNA-recorder readout of cleavage of the substrate (dimensionless); higher = more cleavage of the substrate by the protease variant
Conditions: temperature: 34 °C; time window: 0-4 h after rhamnose induction
Description: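 In vivo DNA recorder in E. coli TOP10(DE3) ΔrhaA at 34 °C. Each TEVp single-site mutant (parent TEVp 0) is paired with a single-site variant of the 7-mer TEVs (canonical ENLYFQ|S). The substrate sits between flexible linkers in a Bxb1-sfGFP-TEVs-SsrA fusion, so cleavage stabilises Bxb1 and speeds flipping of a recombination array, read by NGS. The value is the raw area under the fraction-flipped curve over 0-4 h after rhamnose induction (AUC4h), with ≥20 reads per time point. It is not background-subtracted; inactive controls average about 0.047.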
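Further: Bxb1 expression induced with 0.2% (w/v) L-rhamnose at OD600 near 0.5, cultures sampled hourly, flipped fraction per protease–substrate barcode pair counted by paired-end Illumina sequencing.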

| Variant | area with substrate EALYFQS | area with substrate ECLYFQS | area with substrate EDLYFQS | area with substrate EELYFQS | area with substrate EGLYFQS | area with substrate EILYFQS | area with substrate EKLYFQS | area with substrate ELLYFQS | area with substrate EMLYFQS | area with substrate ERLYFQS | area with substrate ESLYFQS | area with substrate ETLYFQS | area with substrate EVLYFQS | area with substrate EWLYFQS | area with substrate EYLYFQS | area with substrate EFLYFQS | area with substrate EHLYFQS | area with substrate EPLYFQS | area with substrate EQLYFQS |
| --- | --- | --- | --- | --- | --- | --- | --- | --- | --- | --- | --- | --- | --- | --- | --- | --- | --- | --- | --- |
| MGESLFKGPRDYNPISSSICHLTNESDGHTTSLYGIGFGPFIITNKHLFRRNNGTLVVQSLHGVFKVKDTTTLQQHLVDGRDMIIIRMPKDFPPFPQKLKFREPQREERICNVTTNFQTKSMSSMVSDTSCTFPSGDGIFWKHWIQTKDGQCGSPLVSTRDGFIVGIHSASNFTNTNNYFTSVPKNFMELLTNQEAQQWVSGWRLNADSVLWGGHKVFMVKPEEPFQPVKEATQL [L112N] | 0.0838 | 0.0662 | 0.0943 | 0.0747 | 0.0803 | 0.0877 | 0.0633 | 0.0537 | 0.0702 | 0.0805 | 0.0757 | 0.0813 | 0.103 | 0.066 | 0.0822 | – | – | – | – |
| MGESLFKGPRDYNPIESSICHLTNESDGHTTSLYGIGFGPFIITNKHLFRRNNGTLVVQSLHGVFKVKDTTTLQQHLVDGRDMIIIRMPKDFPPFPQKLKFREPQREERICLVTTNFQTKSMSSMVSDTSCTFPSGDGIFWKHWIQTKDGQCGSPLVSTRDGFIVGIHSASNFTNTNNYFTSVPKNFMELLTNQEAQQWVSGWRLNADSVLWGGHKVFMVKPEEPFQPVKEATQL [S16E] | 0.125 | 0.0894 | 0.11 | 0.123 | 0.117 | 0.0797 | 0.117 | – | 0.115 | 0.105 | 0.102 | – | 0.0954 | 0.105 | – | 0.113 | 0.0984 | 0.134 | 0.0986 |
| MGESLFKGPRDYNPISSSICHLTNESDGHTTSLYGIGFGPFIITNKHLFRRNNGTLVVQSLHGVFKVKDTTTLQQHLVDGRDMIIIRMPKDFPPFPQKLKFREPQREERICLVTTNFQTKSMSSMVSDTSCTFPSRDGIFWKHWIQTKDGQCGSPLVSTRDGFIVGIHSASNFTNTNNYFTSVPKNFMELLTNQEAQQWVSGWRLNADSVLWGGHKVFMVKPEEPFQPVKEATQL [G136R] | 0.115 | 0.125 | – | 0.0875 | – | 0.0989 | 0.118 | 0.0928 | 0.141 | 0.0989 | 0.0924 | 0.141 | 0.0733 | – | 0.0901 | 0.123 | 0.127 | 0.104 | 0.0876 |
| MGESLFKKPRDYNPISSSICHLTNESDGHTTSLYGIGFGPFIITNKHLFRRNNGTLVVQSLHGVFKVKDTTTLQQHLVDGRDMIIIRMPKDFPPFPQKLKFREPQREERICLVTTNFQTKSMSSMVSDTSCTFPSGDGIFWKHWIQTKDGQCGSPLVSTRDGFIVGIHSASNFTNTNNYFTSVPKNFMELLTNQEAQQWVSGWRLNADSVLWGGHKVFMVKPEEPFQPVKEATQL [G8K] | 0.0982 | – | – | – | 0.0553 | 0.0907 | 0.108 | – | – | 0.122 | 0.107 | – | – | – | – | 0.121 | – | – | – |
| MGESLFKGPRDYNPISSSICHLTHESDGHTTSLYGIGFGPFIITNKHLFRRNNGTLVVQSLHGVFKVKDTTTLQQHLVDGRDMIIIRMPKDFPPFPQKLKFREPQREERICLVTTNFQTKSMSSMVSDTSCTFPSGDGIFWKHWIQTKDGQCGSPLVSTRDGFIVGIHSASNFTNTNNYFTSVPKNFMELLTNQEAQQWVSGWRLNADSVLWGGHKVFMVKPEEPFQPVKEATQL [N24H] | 0.0872 | – | 0.109 | 0.0695 | 0.0638 | 0.0832 | 0.0999 | 0.0731 | – | 0.0675 | 0.0844 | 0.0822 | 0.0987 | – | 0.0971 | – | 0.119 | – | 0.0997 |
| MGESLFKGPRDYNPISSSICHLTNESDGHTTSLYGIGFGPFIITNKHLFRRNNGTLVVQSLHGVFKVKDTTTLQQHLVDGRDMIIIRMPKDFPPFPQKLKFREPQREERICLVTTNFQTKSMSSMVSDTSCTFHSGDGIFWKHWIQTKDGQCGSPLVSTRDGFIVGIHSASNFTNTNNYFTSVPKNFMELLTNQEAQQWVSGWRLNADSVLWGGHKVFMVKPEEPFQPVKEATQL [P134H] | 0.0787 | 0.0839 | 0.106 | 0.0912 | 0.0672 | 0.0694 | 0.0588 | – | 0.0638 | 0.0768 | 0.0856 | 0.0721 | 0.0656 | 0.0721 | 0.0883 | 0.0895 | 0.0932 | – | 0.0809 |
| MGESLFKGPRDYNPISSSICHLTNESDGHTTSLYGIGFGPFIITNKHLFRRNNGTLVVQSLHGVFKVKDTTTLQQHLVDGRDMIIIRMPKDFPPFPQKLKFREPQREERICLVTTNFQTKSMSSMVSDTSCTFPSGDGIFWKHWIQTKDGQCGSPLVSTRDGFIVGIHSASNFTNTNNYFTSVPKNFMELLTNQEAQQWVSGWRLNAQSVLWGGHKVFMVKPEEPFQPVKEATQL [D208Q] | 0.108 | 0.0828 | 0.0989 | – | – | – | 0.0997 | 0.0618 | 0.078 | 0.074 | 0.0651 | – | 0.0701 | 0.0682 | – | – | 0.0974 | 0.0794 | 0.0788 |
| MGESLFKGPRDYNPISSSICHLTNESDGHTTSLYGIGFGPFIITNKHLFRRNNGTLVVQSLHGVFKVKDTTTLQQHLVDKRDMIIIRMPKDFPPFPQKLKFREPQREERICLVTTNFQTKSMSSMVSDTSCTFPSGDGIFWKHWIQTKDGQCGSPLVSTRDGFIVGIHSASNFTNTNNYFTSVPKNFMELLTNQEAQQWVSGWRLNADSVLWGGHKVFMVKPEEPFQPVKEATQL [G80K] | 0.116 | 0.0917 | – | – | 0.0938 | 0.0892 | 0.109 | 0.089 | 0.11 | 0.072 | 0.0802 | – | 0.119 | 0.0784 | 0.0965 | 0.103 | – | 0.104 | 0.112 |
| MGESLFKGPRDYNPISSSICHLTNESDGHTTSLYGIGFGPFIITNKHLFRRNNGTLVVQSLHGVFKVKDTTTLQQHLVDGRDMIIIRMPKDFPPFPQKLKFREPQREERICLVTTNFQTKSMSSMVSDTSCTFPSGDGIFWKHWIQTKDGQCGSPLVSTRVGFIVGIHSASNFTNTNNYFTSVPKNFMELLTNQEAQQWVSGWRLNADSVLWGGHKVFMVKPEEPFQPVKEATQL [D161V] | 0.032 | 0.0521 | 0.0602 | 0.0522 | 0.0629 | 0.0366 | 0.0582 | 0.0585 | 0.0415 | 0.0596 | 0.0524 | 0.0629 | 0.0579 | 0.0514 | 0.0545 | 0.0544 | – | – | 0.0525 |

Reference: the supplement of paper PMC12217912
